The results in this text go back to PMC4336329 (PLoS ONE, 2015).

About 14,000 (4.5%) of roughly 310,000 compounds showed an effect of 50% or more. Effects have a minus sign here. Some of the results follow.
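Also: peak tail current of the secondary pulse compared with the same well before compound.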

The target in this experiment is human ether-à-go-go-related gene (hERG) potassium channel (human, UniProt Q12809). The experiment in a line: primary screen, population patch clamp on CHO cells stably expressing hERG.
Sequence of human ether-à-go-go-related gene (hERG) potassium channel (Q12809 whole entry, looked up): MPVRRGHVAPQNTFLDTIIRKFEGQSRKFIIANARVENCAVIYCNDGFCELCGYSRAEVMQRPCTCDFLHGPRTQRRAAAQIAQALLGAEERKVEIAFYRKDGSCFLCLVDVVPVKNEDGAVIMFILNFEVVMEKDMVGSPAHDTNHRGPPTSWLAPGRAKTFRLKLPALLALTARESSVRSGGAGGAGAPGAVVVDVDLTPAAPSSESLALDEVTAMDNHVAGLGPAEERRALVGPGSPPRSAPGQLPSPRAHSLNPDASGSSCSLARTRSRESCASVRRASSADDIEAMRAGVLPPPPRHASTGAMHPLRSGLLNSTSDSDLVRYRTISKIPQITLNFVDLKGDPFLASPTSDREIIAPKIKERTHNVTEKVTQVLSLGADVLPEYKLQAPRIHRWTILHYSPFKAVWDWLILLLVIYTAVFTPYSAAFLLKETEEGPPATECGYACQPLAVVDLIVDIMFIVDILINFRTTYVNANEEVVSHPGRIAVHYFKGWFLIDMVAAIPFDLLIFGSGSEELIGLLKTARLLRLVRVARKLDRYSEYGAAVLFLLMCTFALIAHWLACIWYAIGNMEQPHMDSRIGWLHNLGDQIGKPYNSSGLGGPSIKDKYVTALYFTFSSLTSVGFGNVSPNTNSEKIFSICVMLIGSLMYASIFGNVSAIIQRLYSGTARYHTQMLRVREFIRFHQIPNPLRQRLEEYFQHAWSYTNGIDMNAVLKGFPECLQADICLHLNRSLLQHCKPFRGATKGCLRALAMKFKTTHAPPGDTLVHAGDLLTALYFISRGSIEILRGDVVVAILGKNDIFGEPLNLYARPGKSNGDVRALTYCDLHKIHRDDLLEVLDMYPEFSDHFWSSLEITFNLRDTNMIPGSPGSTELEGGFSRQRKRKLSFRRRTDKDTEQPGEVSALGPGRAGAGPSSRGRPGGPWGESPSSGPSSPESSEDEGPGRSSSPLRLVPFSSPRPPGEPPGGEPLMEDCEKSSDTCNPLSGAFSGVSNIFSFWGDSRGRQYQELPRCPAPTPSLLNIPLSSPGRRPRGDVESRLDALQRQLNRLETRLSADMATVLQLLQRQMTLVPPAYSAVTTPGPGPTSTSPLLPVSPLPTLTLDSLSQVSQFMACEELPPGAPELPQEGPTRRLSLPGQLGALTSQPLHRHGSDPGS
Turning to `CSCC(=O)NS(=O)(=O)c1ccc(C)cc1`, the “hERG current change (%, negative = inhibition) at 10uM” value turned out to be 8.24%.
`O=C(CN1CCC(N2CCCCC2)CC1)N1CCCc2ccccc21.O=C(O)C(=O)O`: the “hERG current change (%, negative = inhibition) at 10uM” value is 20.7%.
As for `Cc1cc(-c2ccco2)n(CC(=O)NCCCc2ccccc2)n1`, the “hERG current change (%, negative = inhibition) at 10uM” value is listed as 4.73%.
In the case of `O=C1CCCC(=O)N1c1ccc(F)cc1` it was 10.2%.
As to `CCNC(=S)NNC(=O)Cn1c(=O)c2c(ncn2CCOC)n(Cc2ccccc2)c1=O`, the “hERG current change (%, negative = inhibition) at 10uM” value came out at 15.3%.
As for `CCCc1nnc(NC(=O)C2CCN(C(=O)C3CC(=O)N(c4ccc(C)cc4)C3)CC2)s1` (stereo not drawn), the “hERG current change (%, negative = inhibition) at 10uM” value was -5.5%.
With `O=C(O)CCC(=O)N1c2ccccc2NC2=C(C(=O)CC(c3ccc(F)cc3)C2)C1c1ccc([N+](=O)[O-])o1` (stereo not drawn), the “hERG current change (%, negative = inhibition) at 10uM” value amounted to 27.4%.
On to `O=C(COc1ccc2c(-c3ccccc3)cc(=O)oc2c1)NCC1CCC(C(=O)O)CC1` (stereo not drawn), for which the “hERG current change (%, negative = inhibition) at 10uM” value is listed as 12%.
Regarding `O=C(NCCCn1ccnc1)C1CC(c2ccccc2Cl)=NO1` (stereo not drawn), the “hERG current change (%, negative = inhibition) at 10uM” value was -5.15%.
Turning to `COc1ccc(/C=C2\SC(=S)N(CC(=O)NC3C=CS(=O)(=O)C3)C2=O)cc1` (stereo not drawn), the “hERG current change (%, negative = inhibition) at 10uM” value was 15.1%.
Turning to `Br.CN1CCN(C(=O)Cc2ccccc2)CC1`, the “hERG current change (%, negative = inhibition) at 10uM” value came out at 19.5%.
In the case of `CCN1CCN(C(=O)C(NS(=O)(=O)c2ccc3nc(C)sc3c2)C(C)C)CC1` (stereo not drawn) it was 0.194%; in that of `CCS(=O)(=O)N1CCC(C(=O)NCc2ccc(OC)cc2OC)CC1`, 20.4%; in that of `CCOC(=O)c1nnn(CC(=O)Nc2cc(F)ccc2F)c1C(=O)OCC`, 0.314%.
For `Cc1ccccc1N1C(=O)C2ON(c3ccccc3)C(c3ccncc3)C2C1=O` (stereo not drawn), the “hERG current change (%, negative = inhibition) at 10uM” value was -2.7%.
With `NC(=O)c1nsc(C(=O)N(c2ccc(F)cc2)C(C(=O)NCC2CCCO2)c2ccc3ncccc3c2)c1N` (stereo not drawn), the “hERG current change (%, negative = inhibition) at 10uM” value is recorded as -22.4%.
With `COc1ccccc1OCc1ccc(C(=O)NC2CCCCC2)o1` the figure was -12.5%; with `CCOc1ncccc1C(=O)OCC(=O)Nc1cc(C)ccc1C`, 3.95%; with `O=C(Nc1ccc2c(c1)OCCO2)c1ccccc1F`, 1.64%.
In the case of `C=CCOc1cccc(C2/C(=C(/O)c3ccc(F)cc3)C(=O)C(=O)N2CCN2CCOCC2)c1` (stereo not drawn) it was 14.7%.
As for `N#CC(C#N)=c1ccc2c(c1)N1C(c3ccccc3)=CC(c3ccccc3)C3CCCCC31N=2` (stereo not drawn), the “hERG current change (%, negative = inhibition) at 10uM” value is given as 6.61%.
Turning to `CC1(C(O)(C#CC[N+]2(C)CCCCC2)c2ccccc2)CCCC1.[I-]` (stereo not drawn), the “hERG current change (%, negative = inhibition) at 10uM” value came out at 29.6%.
With `CCCCOc1ccc(C(=O)NCC(=O)NCCCn2nc(C)cc2C)cc1` the figure was -17%; with `CCOc1cccc(-c2nnc(SCC(=O)Nc3cc(C)ccc3OC)n2N)c1`, -16.9%.
With `Cc1nn(-c2ccccc2)c2sc(C(=O)c3c(N)n(C)c(=O)n(C)c3=O)cc12` the figure was -2.81%; with `Nc1nnnn1CC(=O)N/N=C/c1cc([N+](=O)[O-])ccc1Cl`, 25.5%.
With `COc1ccccc1-n1c(SCC(N)=O)nc2c(c1=O)SCC2`, the “hERG current change (%, negative = inhibition) at 10uM” value amounted to 5.57%.
For the compound `Cc1ccc(NC(=O)CCc2nnc(SCC(=O)Nc3ccccc3C)n2C)cc1Cl`, the “hERG current change (%, negative = inhibition) at 10uM” value is given as 14.5%.
As to `CCn1c(=O)c(C(=O)NCCCc2ccccc2)c(O)c2ccccc21`, the “hERG current change (%, negative = inhibition) at 10uM” value is 8.18%.
In the case of `Cc1cc(C(=O)Cn2cnc3ccccc3c2=O)c(C)n1C1CC1`, the “hERG current change (%, negative = inhibition) at 10uM” value was found to be 22.6%.
With `N#C/C(=C(/O)CSc1ccccc1C(=O)O)c1nc2ccccc2s1` the figure was 15.8%.
With `COc1ccc(CNC(=O)CCS(=O)(=O)c2ccc3c(c2)NC(=O)CS3)cc1`, the “hERG current change (%, negative = inhibition) at 10uM” value is -10.6%.
With `COc1cc([C@H](Cc2ccccc2)NC(C)=O)oc(=O)c1` the figure was -20.4%.
In the case of `COCCNC(=O)CC(c1ccccc1)c1ccccc1`, the “hERG current change (%, negative = inhibition) at 10uM” value was 0.834%.
For the compound `COc1cc2ccccc2cc1C(=O)NC(=S)Nc1cccc(C(=O)O)c1C`, the “hERG current change (%, negative = inhibition) at 10uM” value is reported as -4.09%.
On to `Cc1cccn2c(=O)c3cc(C#N)c(=O)n(-c4c(C)n(C)n(-c5ccccc5)c4=O)c3nc12`, for which the “hERG current change (%, negative = inhibition) at 10uM” value was -7.5%.
As to `CS(=O)(=O)c1ccc(C(=O)OC2CCOC2=O)cc1[N+](=O)[O-]` (stereo not drawn), the “hERG current change (%, negative = inhibition) at 10uM” value came to 6.5%.
In the case of `Cc1ccc(S(=O)(=O)N2CCC(C(=O)N(C)C3CCS(=O)(=O)C3)CC2)cc1` (stereo not drawn) it was -7.72%; in that of `COc1ccc(CCN2C(=O)C3C4C=CC(C4)C3C2=O)cc1OC` (stereo not drawn), 4.59%; in that of `CCOc1c(C)cnc2c1c(=O)n(Cc1ccc(Cl)cc1)c(=O)n2C`, -10.3%.
As for `COCCCNC(=S)N1CCCN(c2nc3cc(C)ccc3cc2C#N)CC1`, the “hERG current change (%, negative = inhibition) at 10uM” value is reported as -13.6%.
In the case of `O=C(NCc1ccc(F)cc1)C1CCCN(S(=O)(=O)c2ccc(Br)s2)C1` (stereo not drawn) it was -15.7%; in that of `O=C(C1=C[C@@H](c2ccc(Br)cc2)C[C@@H](OCc2ccc(CO)cc2)O1)N1CCOCC1`, -31.5%; in that of `O=C(NNC(=O)C12CC3CC(CC(C3)C1)C2)c1ccccc1O`, -0.306%.
In the case of `COCCNC(=O)CCc1nnc2ccc(N3CCC(C)CC3)nn12` it was 21.8%.
In the case of `COc1ccc(C2=NOC(C(=O)Nc3cc(C)on3)C2)cc1OC` (stereo not drawn) it was 1.39%; in that of `Cc1nc(-c2cccc(Cl)c2)n[nH]1`, -17.3%; in that of `COc1ccc(NC(=O)N2C3CCCC2CC(NC(=O)C2CC2)C3)cc1` (stereo not drawn), 21.9%.
Consider `CC1(N2CCOCC2)CC2(O)C(=[N+]1[O-])CCc1nonc12` (stereo not drawn), for which the “hERG current change (%, negative = inhibition) at 10uM” value was determined as 18.9%.
In the case of `CCOC(=O)C1=NN(C(=O)c2ccc(OC)cc2)C(O)(c2ccc(Cl)cc2)C1` (stereo not drawn) it was -75.5%; in that of `N#Cc1ccc(CSc2nnc(-c3ccccc3)n2Cc2ccco2)cc1`, -26.8%; in that of `CCOc1cc(/C=C(/C#N)C(=O)Nc2ccc(O)cc2)cc(Br)c1O`, -14.3%.
In the case of `Cc1nn(CC(=O)N(C)C2CCS(=O)(=O)C2)c(C)c1S(=O)(=O)N(C)C` (stereo not drawn) it was -1.04%.
For `Cc1ccc(S(=O)(=O)N2CCN(C(=O)Cn3nc(C(=O)O)c4ccccc4c3=O)CC2)cc1`, the “hERG current change (%, negative = inhibition) at 10uM” value amounted to 11.5%.
